Several values for one entry are separate records, joined by “and”; a condition that tells them apart may be missing. Equal values may be shown once. The inconclusive results got no clear call from the source; some entries with a clear call stand among them for comparison. For some assays here: Potencies of inconclusive entries are doubtful fits and often do not repeat. Activity calls are given as the source filed them. Calls follow the shape of the dose curve; as a rule, active = well fitted curve in the direction sought with a large enough effect; inconclusive = small, poorly fitted or top-dose-only effect, or another doubt; inactive = no such curve, though single readings can be large; an effect the other way counts as inactive or inconclusive.
Tests used:
[1] = qHTS of pediatric cancer cell lines to identify multiple opportunities for drug repurposing: Primary screen for NB-EBc1 cells (AID 1347095)
Summary of the method: (§1)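 Cells seeded at 500-1,000 cells/well in growth media, rested 5 hours at 37 degrees C, 5% CO2, then dosed; MIPE compounds at 11-point (from 0.78 nM) and NPC at 8-point (from 0.59 nM) final concentrations. Viability by CellTiter-Glo luminescence after 48 hours.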

[2] = qHTS of pediatric cancer cell lines to identify multiple opportunities for drug repurposing: Primary screen for U-2 OS cells (AID 1347096); also: nearly all actives have a fitted effect of over 50% in size
Summary of the method: (§2)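 Viability after 48 h compound treatment at 37C, 500-1,000 cells/well, read as ATP luminescence with CellTiter-Glo. Primary screens used 11-point (MIPE, 0.78 nM-46 µM) or 8-point (NPC, 0.59 nM-46 µM) final concentrations; follow-up screens used 11-point dilutions.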

[3] = qHTS of pediatric cancer cell lines to identify multiple opportunities for drug repurposing: Primary screen for Saos-2 cells (AID 1347097); details: Saos-2 viability, CellTiter-Glo ATP luminescence, 48 h; activity change, negative = cytotoxic: at 46 µM (top of the series); also: nearly all actives have a fitted effect of over 40% in size
Summary of the method: as §1

[4] = qHTS of pediatric cancer cell lines to identify multiple opportunities for drug repurposing: Primary screen for SK-N-SH cells (AID 1347098); details: SK-N-SH viability, CellTiter-Glo luminescence, 48 h; activity change, negative = cytotoxic: at 57 µM (top of the series); also: nearly all actives have a fitted effect of over 65% in size
Summary of the method: (§3)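 Cells (500-1,000/well) rested 5 h, then received compounds for 48 h; metabolically active cells were measured by CellTiter-Glo luminescence. Final concentrations spanned up to 46 µM (MIPE, 11-point) or 0.59 nM-46 µM (NPC, 8-point) in primary screens, 11-point in follow-ups.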

[5] = qHTS of pediatric cancer cell lines to identify multiple opportunities for drug repurposing: Primary screen for NB1643 cells (AID 1347099); also: nearly all actives have a fitted effect of over 50% in size
Summary of the method: as §1

[6] = qHTS of pediatric cancer cell lines to identify multiple opportunities for drug repurposing: Primary screen for LAN-5 cells (AID 1347100); details: LAN-5 neuroblastoma viability, CellTiter-Glo luminescence, 48 h; activity change, negative = cytotoxic: at 46 µM (top of the series)
Summary of the method: as §2

[7] = qHTS of pediatric cancer cell lines to identify multiple opportunities for drug repurposing: Primary screen for BT-12 cells (AID 1347101); also: nearly all actives have a fitted effect of over 25% in size
Summary of the method: as §3

[8] = qHTS of pediatric cancer cell lines to identify multiple opportunities for drug repurposing: Primary screen for OHS-50 cells (AID 1347103); also: nearly all actives have a fitted effect of over 40% in size
Summary of the method: as §3

[9] = qHTS of pediatric cancer cell lines to identify multiple opportunities for drug repurposing: Primary screen for RD cells (AID 1347104); also: nearly all actives have a fitted effect of over 55% in size
Summary of the method: as §1

[10] = qHTS of pediatric cancer cell lines to identify multiple opportunities for drug repurposing: Primary screen for Rh18 cells (AID 1347102); also: nearly all actives have a fitted effect of over 65% in size
Summary of the method: as §2
Potency is read from the fitted curve at half-maximal effect; tags tell the direction and shape of the fitted curve.

Row | SMILES | Potency [1] | Potency [2] | Potency [3] | Potency [4] | Potency [5] | Potency [6] | Potency [7] | Potency [8] | Potency [9] | Potency [10]
1 | CNCCCC12CCC(c3ccccc31)c1ccccc12 | inactive | inconclusive: 10.6 µM [cytotoxic, partial curve, poor fit] and inconclusive: 23.5 µM [cytotoxic, partial curve, poor fit] | inconclusive: 26.6 µM [cytotoxic, single point] | inconclusive: 27.1 µM [cytotoxic, partial curve] | inconclusive: 29.9 µM [cytotoxic, single point] and inconclusive: 20.9 µM [cytotoxic, single point] | inconclusive: 26.6 µM [cytotoxic, single point] | inconclusive: 38.9 µM [cytotoxic, single point] and inconclusive: 27.3 µM [cytotoxic, single point] | active: 27.6 µM and active: 24.3 µM | inconclusive: 29.9 µM [cytotoxic, single point] and active: 29.6 µM | 
2 | Cc1cccc(-c2[nH]c(C(C)(C)C)nc2-c2ccc3nccnc3c2)n1 | inconclusive: 4.18 µM [cytotoxic, full curve] | inconclusive: 14.8 µM [cytotoxic, partial curve, poor fit] | active: 1.66 µM | inconclusive: 30.4 µM [cytotoxic, single point] |  | inconclusive: 2.64 µM [cytotoxic, full curve] | active: 24.3 µM |  | inconclusive: 18.7 µM [cytotoxic, partial curve] | inconclusive: 20.9 µM [cytotoxic, partial curve]

Reference: PubChem BioAssay (NCATS)
